# Paper PMC7819943, “Rice protein-binding microarrays: a tool to detect cis-acting elements near promoter regions in rice”
# The other results are listed elsewhere or left out.
# Biological target: T1, OsWOX13 (Oryza sativa, UniProt Q5QMM3 1-267)
# T1 sequence: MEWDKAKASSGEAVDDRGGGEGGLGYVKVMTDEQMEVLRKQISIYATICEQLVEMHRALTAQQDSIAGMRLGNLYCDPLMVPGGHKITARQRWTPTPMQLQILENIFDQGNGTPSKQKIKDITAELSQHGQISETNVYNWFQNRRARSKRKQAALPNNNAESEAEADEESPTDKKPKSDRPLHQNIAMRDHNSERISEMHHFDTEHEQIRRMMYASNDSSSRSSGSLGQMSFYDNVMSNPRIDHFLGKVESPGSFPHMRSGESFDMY
# Assay: protein-binding microarray (RPBM); PBS, 2% BSA, 51.3 ng/ul salmon testes DNA, 50 uM zinc acetate, 200 nM TF, 25 C, 1 h; high values mean tight binding
# Conditions: protein: recombinant; tags: N-terminal polyhistidine and DsRed monomer fusion (pET32a); label: CyDye5-dUTP incorporated in the synthesized complementary strand; 3' TTTTT single-stranded linker to array surface; dsDNA, one strand shown
# How it was run: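 Polyhistidine-tagged DsRed fusions of transcription factors, joined at the N-terminus, were expressed in E. coli BL21-CodonPlus and isolated on Ni–NTA. They were incubated at 200 nM for 1 h at 25 °C on a custom Agilent array, double-stranded and BSA-blocked, in PBS with 2% BSA, salmon testes DNA and 50 µM zinc acetate. The binding signal is per-feature fluorescence intensity (arbitrary units) read on an Axon 4000B scanner after washing.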
row,Sequence,binding signal
1,ATGACTGACGATTCGATCCACCAGATCAGGTGATCATCGACGGAGTCACCTAGTGCAG,8640 fluorescence intensity (a.u.)
2,GAACTGACAGACAGTCCCCTCCATTAGATGGAGGGAGAATCGGAGTCACCTAGTGCAG,7180 fluorescence intensity (a.u.)
3,GAACATGATAGCTATTCACTTATTTGCAGATTAAATTACGCGGAGTCACCTAGTGCAG,5650 fluorescence intensity (a.u.)
4,TCCTACTTGATTGAGGGTAGATTGACCGCTAGGGAAAATTCGGAGTCACCTAGTGCAG,23700 fluorescence intensity (a.u.)
5,CATATAATTGCTGATTCAGTGATTCGATTCCGTCGAGACTCGGAGTCACCTAGTGCAG,41600 fluorescence intensity (a.u.)
6,TCCGCATCCAACTTTGATTGTCCGTCTTATTTGAAATTTTCGGAGTCACCTAGTGCAG,4950 fluorescence intensity (a.u.)
7,GTAACATACATAATCATCCTCTGTAATGGTGTGTAAGCTCCGGAGTCACCTAGTGCAG,5680 fluorescence intensity (a.u.)
8,CGACTGGATTGAAGCATTTTCTGCCTAGCTGTCTGTCTCTCGGAGTCACCTAGTGCAG,10100 fluorescence intensity (a.u.)
9,CTTTACATTTTAATTTGGACCACCATATTCTATCCATCTCCGGAGTCACCTAGTGCAG,3500 fluorescence intensity (a.u.)
10,CCTTTCTTAGATTAGATTGATCCGTGACTATGCTTCTTCTCGGAGTCACCTAGTGCAG,33500 fluorescence intensity (a.u.)
11,GTTAATTTATTTCGGAATTGAACGAAGACTACTTAATCCACGGAGTCACCTAGTGCAG,30500 fluorescence intensity (a.u.)
12,GAAACTTCGGGCAATCAAATTTACCTATTTCGTGTAGATTCGGAGTCACCTAGTGCAG,3490 fluorescence intensity (a.u.)
13,GGAAGATGTAATTTTGTGTAAAGCACATGAAGTTAATTTGCGGAGTCACCTAGTGCAG,3970 fluorescence intensity (a.u.)
14,TGGTTATTAGATTTACTATAGATGAATTATAGCTGGTAGTCGGAGTCACCTAGTGCAG,3330 fluorescence intensity (a.u.)
15,CTGATTGGCCATGAGTCCAGAGATAGCATTGAACACAGGACGGAGTCACCTAGTGCAG,32400 fluorescence intensity (a.u.)
16,AAATCACAATAAAATAATTAATAATTATGTGCTTATACTACGGAGTCACCTAGTGCAG,8700 fluorescence intensity (a.u.)
17,CAGCTAAGATAATTAACTTAGCTAGTTGTCTCAGGATTATCGGAGTCACCTAGTGCAG,5810 fluorescence intensity (a.u.)
18,AACTAATTACTACATTGTAACTTCCCATAACTTTGAACCGCGGAGTCACCTAGTGCAG,25900 fluorescence intensity (a.u.)
19,TTGATTAGTCCTCCGTGGTTAATTAATTAGTGGAGAAACCCGGAGTCACCTAGTGCAG,20600 fluorescence intensity (a.u.)
20,AAAATTACGTAATTATAATTTATTTTGTTATGAGTTGTTTCGGAGTCACCTAGTGCAG,31300 fluorescence intensity (a.u.)
21,TTCAAATTTGTATTTTAGTTATTAGTACGCAAAGCTGCTCCGGAGTCACCTAGTGCAG,6590 fluorescence intensity (a.u.)
22,TTCCCTGATTTCTTCTGCGCTGACTCCTCCCTTACGATGCCGGAGTCACCTAGTGCAG,9800 fluorescence intensity (a.u.)
23,AATGATAATCATGTTCGATTTTAAAATCTCAATGACAATACGGAGTCACCTAGTGCAG,7100 fluorescence intensity (a.u.)
